# Measurements: publication PMC4336329 (PLoS ONE, 2015)
# Out of some 310,000 compounds screened, about 14,000 (4.5%) showed an effect of 50% or more. The effect is printed as a negative number. The list shows a part of the results.
# Target: human ether-à-go-go-related gene (hERG) potassium channel (human, UniProt Q12809)
# Assay: primary screen, population patch clamp on CHO cells stably expressing hERG
# 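Also: peak tail current of the secondary pulse compared with the same well before compound.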
# human ether-à-go-go-related gene (hERG) potassium channel, sequence (Q12809 whole entry, looked up): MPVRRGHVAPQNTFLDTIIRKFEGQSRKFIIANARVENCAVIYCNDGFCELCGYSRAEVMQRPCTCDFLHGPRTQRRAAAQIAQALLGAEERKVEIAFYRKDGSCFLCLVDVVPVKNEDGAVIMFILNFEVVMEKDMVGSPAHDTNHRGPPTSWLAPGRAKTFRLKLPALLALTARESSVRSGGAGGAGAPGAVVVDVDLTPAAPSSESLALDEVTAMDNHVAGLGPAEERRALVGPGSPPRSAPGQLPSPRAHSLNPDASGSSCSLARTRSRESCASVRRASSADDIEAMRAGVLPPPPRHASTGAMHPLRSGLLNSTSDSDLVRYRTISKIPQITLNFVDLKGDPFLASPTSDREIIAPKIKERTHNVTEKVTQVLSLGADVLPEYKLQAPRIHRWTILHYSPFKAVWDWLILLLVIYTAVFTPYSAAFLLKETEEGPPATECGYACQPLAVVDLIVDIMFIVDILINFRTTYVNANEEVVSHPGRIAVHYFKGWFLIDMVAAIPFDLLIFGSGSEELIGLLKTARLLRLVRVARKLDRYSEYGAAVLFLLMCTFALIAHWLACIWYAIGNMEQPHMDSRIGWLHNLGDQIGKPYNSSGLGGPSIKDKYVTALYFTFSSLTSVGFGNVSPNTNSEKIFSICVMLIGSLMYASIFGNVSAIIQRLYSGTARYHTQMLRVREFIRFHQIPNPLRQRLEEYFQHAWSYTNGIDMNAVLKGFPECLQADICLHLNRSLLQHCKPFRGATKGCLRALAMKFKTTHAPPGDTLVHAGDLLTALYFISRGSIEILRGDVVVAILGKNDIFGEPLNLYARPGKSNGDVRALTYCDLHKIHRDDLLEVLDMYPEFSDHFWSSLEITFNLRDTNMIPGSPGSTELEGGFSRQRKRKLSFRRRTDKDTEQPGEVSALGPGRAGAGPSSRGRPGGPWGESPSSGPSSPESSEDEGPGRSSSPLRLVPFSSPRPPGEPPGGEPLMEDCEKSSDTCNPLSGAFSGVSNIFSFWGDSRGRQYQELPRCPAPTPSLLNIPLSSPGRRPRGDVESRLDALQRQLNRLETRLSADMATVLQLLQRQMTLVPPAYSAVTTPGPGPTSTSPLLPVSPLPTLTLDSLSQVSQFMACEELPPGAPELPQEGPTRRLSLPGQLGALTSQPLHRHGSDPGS
row,SMILES,"hERG current change (%, negative = inhibition) at 10uM"
1,CCN(CC)CC(=O)Nc1c2c(nc3ccccc13)N(C)CC2.O=C(O)C(=O)O,16.5%
2,C[N+](C)(C)CCOC(=O)CBr.[Br-],9.55%
3,COc1ccc(CN2CCNC(=O)C2CC(=O)NCc2csc(C(C)C)n2)c(OC)c1 (centres unmarked),-2.45%
4,COC(=O)c1cn(NC(=O)c2ccc(F)cc2)c(=O)c2ccccc12,16.6%
5,CC(C)C(CCNC1CCN(C)CC1)c1ccc(Cl)cc1 (centres unmarked),11.3%
6,O=C(Nc1nc(-c2ccc(-c3ccccc3)cc2)cs1)C1=COCCO1,-2.03%
7,Cc1ccc(-c2nc(Nc3cccc(O)c3)c3ccccc3n2)cc1,11.9%
8,COc1ccc(OC)c(Nc2cc(C(=O)NCCCN3CCOCC3)c3ccccc3n2)c1,-8.94%
9,Cc1[nH]c2ccccc2c1C(=O)COC(=O)C1CCC1,-32%
10,O=C(OCC(=O)N1CCCCCC1)c1ccc(Cl)c(S(=O)(=O)N2CCCC2)c1,-11.2%
11,COc1ccc(CN(CCN)C2CC(C)N(C)CC2C)cc1.Cl (centres unmarked),7.07%
12,CC(=O)Nc1oc(-c2cccc3ccccc23)nc1C#N,-6.52%
13,Cc1ccc2cccc(S(=O)(=O)N3CCN(c4ccccc4F)CC3)c2n1,-7.22%
14,O=C(NC1CCCCC1)NC1CCN(C(=S)NCc2ccco2)CC1,-12.8%
15,Cc1cc(C)c(NC(=S)N2CCCC2C(=O)O)c(C)c1 (centres unmarked),1.82%
16,Cn1c(SCC(=O)O)nc2sc3c(c2c1=O)CCC3,30.3%
17,COc1cc(/C=C/C(=O)c2ccc(C)c([N+](=O)[O-])c2)cc(OC)c1O,-0.34%
18,CCn1nnnc1SCC(=O)Nc1cccc(C)n1,2.14%
19,O=C(/C=C/c1ccc(Cl)cc1)NCCc1ccccc1,-12%

row,SMILES,"hERG current change (%, negative = inhibition) at 10uM"
1,O=C(COC(=O)C1CC(=O)N(Cc2ccccc2)C1)Nc1ccc(Cl)cc1F (centres unmarked),48%
2,Cc1ccc(C2(O)CN(c3ccccc3C)C3=[N+]2CCS3)cc1.[Br-] (centres unmarked),-28.1%
3,COCCn1c(SCC(=O)Nc2ccc(S(=O)(=O)N3CCOCC3)cc2)nc2ccccc21,-58.8%
4,O=C(NCc1cccc(OC(F)(F)F)c1)C1CCC(=O)N(Cc2cccc(F)c2)C1 (centres unmarked),-50.1%
5,CNc1ccc2nc3ccccc3[n+](C)c2c1.[O-][Cl+3]([O-])([O-])[O-],2.56%
6,CO/N=C(/C)CCS(=O)(=O)c1ccccc1,18.5%
7,Cc1ccc(-c2nn(CCC(=O)NC(C)C)c(=O)c3ccccc23)cc1,9.17%
8,Cc1ccc(C)c(NC(=O)C(C)N2C(=O)c3ccccc3C2=O)c1 (centres unmarked),9.35%
9,CCOP(=O)(c1ccc(N(C)C)cc1)C(O)c1ccccc1F (centres unmarked),-14.2%
10,O=C(NNS(=O)(=O)c1ccccc1)c1csc(-c2cccnc2)n1,3.64%
11,COc1ccc(C(C)NC(=O)c2ccccc2Cl)cc1OC (centres unmarked),0.22%
12,Cc1cc(O)c(C(C)C)cc1NC(=O)Cn1nc(C)c2ccccc2c1=O,-26.3%
13,CCOc1cc(/C=C2\NC(=S)N(C)C2=O)ccc1OCc1ccc(C(=O)O)cc1,14.6%
14,CC(C)C[C@H](NC(=O)c1nc[nH]c1C(=O)N1CCN(c2ccccc2)CC1)C(=O)OCc1ccccc1,-10.2%
15,COc1cc(C(=S)N2CCOCC2)cc(OC)c1OC(=O)c1ccccc1[N+](=O)[O-],12.4%
16,Cc1cc(C)n(CCCN2C(=O)c3cccc4cccc(c34)C2=O)n1,6.71%
17,O=C1C2C(C(=O)N1/N=C/c1cccc([N+](=O)[O-])c1)C1C=CC2C12CC2 (centres unmarked),-28.3%
18,Cc1onc(-c2ccccc2)c1C(=O)NC(C)C1CCCO1 (centres unmarked),10.5%
19,O=C(c1ccco1)N1N=C(C2CCCCC2)CC1(O)C(F)(F)F (centres unmarked),8.06%

row,SMILES,"hERG current change (%, negative = inhibition) at 10uM"
1,O=C(Nc1ccc2c(c1)OCCO2)C1CCN(S(=O)(=O)c2ccccc2)CC1,13%
2,CCCc1cc(=O)oc2c(C)c(OCC(=O)Nc3ccc(CN4CCOCC4)cc3)ccc12,-2.71%
3,O=C(NC1CCCCC1)c1ccc(CNc2c(N3CCOCC3)c(=O)c2=O)cc1,4.56%
4,Fc1cccc(C[n+]2csc3ccccc32)c1.[Br-],7.02%
5,CCc1nnc(NC(=O)CCN2C(=O)/C(=C/c3cc(OC)c(OC)c(OC)c3)SC2=S)s1,8.4%
6,COc1cccc(CNC(=O)c2cc3c(cc2Cl)N2CCCCCC2=NS3(=O)=O)c1,-42.9%
7,CCCC[C@@H](CNC)NC[C@H](NCCCCC1CCCCC1)C(C)C,-35.2%
8,N#Cc1c(-c2ccc(Br)cc2)cc(-c2cccnc2)nc1N,18.6%
9,COCCNC(=S)Nc1ccc2nc(N3CCCC3)cc(C)c2c1,-71.6%
10,CC(C)NS(=O)(=O)c1ccc(OCC(=O)NCCC2=CCCCC2)cc1,0.115%
11,Cc1ccc(NC(=O)COC(=O)C2COc3ccccc3O2)cc1 (centres unmarked),8.65%
12,COC(=O)c1c(NC(=O)C2CC=CCC2C(=O)O)sc2c1CCCCC2 (centres unmarked),9.24%
13,COc1ccc(S(=O)(=O)Nc2ccccc2C(=O)N2CCCCC2)cc1C,-9.44%
14,O=C(CSc1nnc(COc2ccccc2)o1)N1CCOCC1,5.84%
15,O=C(C1CCN(S(=O)(=O)c2cccc3cccnc23)CC1)N1CCCCC1,9.9%
16,Cc1ccc(-n2c(COc3ccccc3)n[nH]c2=S)cc1,20.5%
17,O=C(O)CCC(=O)N1N=C(c2c(-c3ccccc3)c3cc(Cl)ccc3[nH]c2=O)CC1c1cccs1 (centres unmarked),10.5%
18,CCc1c(C)nc(SCC(=O)N2CCN(c3ccccc3OC)CC2)[nH]c1=O,13.3%
